In the supplement of paper PMC11417369:
± gives the standard deviation of the averaged measurements. The list shows a part of the results.

These sequences were tested on PfAP2-EXP AP2 domain (GST-tagged) (assay: gcPBM binding intensity (ln(normalized median fluorescence intensity)); higher = stronger DNA binding).
Summary of the method: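 The highest Masliner-normalised natural-log median intensity across replicate spots of either probe orientation is reported as binding intensity. GST-tagged P. falciparum DNA-binding domains expressed in E. coli were applied for 1 h to an Agilent 4 × 180k array of primer-extended double-stranded 36-bp intergenic genomic probes plus negative controls, and bound protein was detected with Alexa488 anti-GST antibody and scanned at 488 nm.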

Row | Sequence | gcPBM binding intensity (ln)
1 | GACTTGAAGAAATAAGTGCAGAGTTTTATTTTAATT [GTGCAC_site9912] | 8.22 ± 0.3
2 | TTTATTAATAAGAAATGTACACAAAATTATTTCCAA [XGTACX_site5970] | 8.36 ± 0.29
3 | ATAGAGTCATTCCTCACACACACGCTATATGAATAG [CACACA_site2047] | 8.76 ± 0.5
4 | AAAAAATACTTATAAAGTACTAATATATATAAGCAG [XGTACX_site743] | 8.61 ± 0.27
5 | TAATTAAAATTAAGAAGTACATTTTACTTTTAATGC [XGTACX_site5120] | 8.25 ± 0.2
6 | AATACAAACCAAAAAGTAAATACATCAACATGATCA [CACACA_negctrl_site140] | 8.54 ± 0.34
7 | TATCATGTTTTTATGGTGCATGAAATCACACATTGA | 8.62 ± 0.23
8 | GAGAAATTTATACATACACACATATATATATTATAT [CACACA_site4038] | 8.5 ± 0.26
9 | TACACCATGATACATACACACAGACATATACTCATT [CACACA_site4708] | 8.64 ± 0.36
10 | TCCAAATGTTTGCGTTGTACTCTTTTTTTAAAACTA [XGTACX_site5148] | 8.86 ± 0.44
11 | ATAACCACATAAAATATAATTATATATATATATATA [CACACA_negctrl_site603] | 10.1 ± 0.31
12 | CCTGAAATTTTATTATGTACATATTATAAAATGATT [XGTACX_site1434] | 8.51 ± 0.3
13 | TGGCACTAAAAAAATAAACACACAGATTTATATAAT [CACACA_site8386] | 8.57 ± 0.47
14 | ATTCCTCCCATGGAATGTACTCATCAAATAAATAAA [XGTACX_site6543] | 8.39 ± 0.42
15 | AATGTATTATGTAATAGTACGTATAATATCTTATTT [XGTACX_site3] | 8.3 ± 0.3
16 | ATACATATCTATAATACACACATAAATGTAACATTT [CACACA_site7621] | 8.74 ± 0.33
17 | TTCTACGTTTTAAAAAAAAAAAAAAAAAAAAAAAAA [XGTACX_negctrl_site6] | 7.9 ± 0.37
18 | TGAAGATAAAAATATGCACACATATATATATATATA [CACACA_site8027] | 10.1 ± 0.31
19 | CATAAAAATGAACATACACACATATATTTATTTATA [CACACA_site7222] | 8.27 ± 0.59
20 | ATTATATATATTGGAGTGCATATATAGTATTTTATA | 8.52 ± 0.099
21 | ACATATTATAGGAATACACACAAAAACTTATCGGTA [CACACA_site7587] | 8.65 ± 0.48
22 | ATAGAAATCTATTGTGATTATTATTTTATTTTTAGT [XGTACX_negctrl_site605] | 8.15 ± 0.28

Row | Sequence | gcPBM binding intensity (ln)
23 | TTTTACTCTTAAAATAATAAAAAATATTCACATTTA [CACACA_negctrl_site1508] | 7.84 ± 0.38
24 | AAAAAGAATATAAGTAGTACAGTGCATATAATAATT [XGTACX_site617] | 9.15 ± 0.11
25 | TATATATACATATACGCATGTAAATTCAAAAGTAAA [TGCATGCA_site956] | 8.64 ± 0.45
26 | AAGAGAAATGGGCACACACACACATATTATATATAT [CACACA_site1531] | 8.88 ± 0.28
27 | AATTAATGTTTTGTCACACAGTATGATTATATATAT [CACACA_site6143] | 8.64 ± 0.35
28 | TATAATTTTTTTAATACACACAAATATTTATATATA [CACACA_site3042] | 8.23 ± 0.29
29 | TTAGTATATTTTTCCTGTACGTACTCAGATACAAAT [XGTACX_site7397] | 8.63
30 | TACACATTATGTATCATACACACAAATAAATATATA [CACACA_site608] | 8.44 ± 0.42
31 | TTAAATAATTTTTAATGTACATTAAATTTATTATTA [XGTACX_site261] | 8.23 ± 0.23
32 | TTGATATAAAAAGAAAGTACTTTATAGATGTTTATT [XGTACX_site8144] | 8.46 ± 0.4
33 | TATAAAAATATATATATATATATATATATATATATA [TGCATGCA_negctrl_site541] | 9.99 ± 0.42
34 | AATAATAACAAATGAACACACATATATATGAGCAAA [CACACA_site2121] | 8.82 ± 0.55
35 | TGTATAACCTGTGTTACACACATTAGAATTTATATA [CACACA_site6393] | 8.15 ± 0.31
36 | TTCTCCATCAGATACTGTACATAATATATATAATAT [XGTACX_site8827] | 8.82 ± 0.33
37 | TATATAAAGATATATACACACAAAAAAAAAAAAAAA [CACACA_site6778] | 8.35 ± 0.47
38 | TACATAAACTTTATAACACACACTTATATATATATA [CACACA_site1106] | 9.86 ± 0.18
39 | GCATCATTTATTTGCACACCTATTATATACTTTTTA [CACACA_site2098] | 8.86 ± 0.19
40 | AATAAGTGTTGATTCTTAAAATGACCATATAATAAT [TGCATGCA_negctrl_site221] | 8.61 ± 0.46
41 | TCATATTTACAAAAAGGTATTAATAAATAAAATATT [CACACA_negctrl_site259] | 8.38 ± 0.4
42 | ATATTAGGGTCATGAACACACAAAAAAAAAAAAAAA [CACACA_site937] | 8.32 ± 0.71
43 | TATCTTTTATAAGTGACACACATAAATATTTAAATT [CACACA_site833] | 8.51 ± 0.48
44 | GCTATCATATCATGTTGTACACAACCTCAAAATGAA [XGTACX_site8757] | 8.74 ± 0.3
